About 240 (0.17%) of roughly 140,000 compounds were called active. Inconclusive means that the source gave no clear call. Such entries were picked first, then a sample of the others. Calls come from the whole dose curve; as a rule, active = well fitted inhibition curve with a large enough effect; inconclusive = small, poorly fitted or top-dose-only effect; inactive = no such curve, though single readings can be large or run the other way. Potencies of inconclusive entries are doubtful fits and often do not repeat.
test: Primary qHTS assay for inhibitors of alpha-synuclein gene (SNCA) expression; conditions: HEK-293 SNCA-luciferase knock-in, luminescence, 24 h; activity change, negative = inhibition: at 57.2 µM (top of the series) unless noted; note: nearly all actives have a fitted effect of over 45% in size;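 for activity change, negative = inhibition: plate controls were DMSO cells for no effect and cell-free wells for full effect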
Potency is the fitted concentration of half-maximal effect; tags give direction and shape of the fitted curve.

Activity change, negative = inhibition, inactive:
COc1ncccc1-c1nc(-c2c(C)noc2C)cc2cc(C(C)C)oc12 31.3% [at 87.6 µM]
CNC(=O)[C@@H]1CN(C(=O)c2cc3ccc(OC)cc3[nH]2)C[C@H]1C1CCN(C)CC1 19.4%
CC1(c2ccccc2)N(Cc2ncccn2)C(=O)OC12CCN(C(=O)Cc1ccc3c(c1)OCO3)CC2 (stereo unspecified) -0.227%
COc1ccc(CC(=O)N2CC[C@@H](CC(=O)O)[C@@H](CCN(C)c3ccccc3)C2)cc1 -13.9% [at 87.6 µM]
O=C(N[C@@H]1CCNC[C@H]1O)c1cccc(-c2ccc(OC(F)(F)F)cc2)c1 10.4%
COc1cccc(N2CCN(C(=O)c3ccc(N4CC5CC(C4)[C@H]4CCCC(=O)N4C5)nc3)CC2)c1 (stereo partly specified) -6.01%
O=C(N[C@H]1CO[C@H]2[C@@H]1OC[C@@H]2Nc1nccc(-c2ccc(-c3ccccc3)cc2)n1)C1CCCCC1 -7.75%
O=C(C1CCCN1C(=O)c1ccc(F)cc1)N1CCC(c2nc3ccncc3[nH]2)C1 (stereo unspecified) 6.27%
CC(=O)Nc1ccc(CN2CC[C@H](c3nnc(C(C)(C)C)o3)C2)cc1 -6.36% [at 87.6 µM]
CC(C)CCN(C)Cc1cccc(C(F)(F)F)c1 -14.1% [at 87.6 µM]
Cc1ccc(NC(=O)NCc2c(-n3cccc3)sc3c2CCCC3)c(Cl)c1 -17%
O=C(NC1CC1)c1cn2cc(-c3ccccc3)sc2n1 -14.4% [at 87.6 µM]
Cc1nc(-c2ccc(OC3CCN(C(=O)NCC(C)C)C3)cc2)no1 (stereo unspecified) -16.3%
Cn1cc(C(=O)N2CCN(c3ccccc3)CC2)c(=O)c2cc(S(=O)(=O)N3CCCC3)ccc21 15.7%
O=C(NC1CC(=O)N(c2ccc(F)cc2)C1)C(c1ccccc1)c1ccccc1 (stereo unspecified) 0.0467%
Cc1cccc(-c2noc([C@@H]3C[C@@H](O)CN3Cc3ccc(Cl)cc3)n2)c1 176% [at 87.6 µM]
CC1=C[C@@H](CNC(=O)COCC(=O)O)[C@H](C(C)C)C[C@H]1Cc1nc2ccccc2n1C 4.04% [at 87.6 µM]

Potency, inconclusive:
CC(C)C[C@@H]1N[C@H](C(=O)NC2CCC2)Cc2cn(Cc3ccccn3)c3cccc1c23 56.2 µM [inhibitor, single point]
CCOC(=O)c1c(C)[nH]c(CCC(=O)NCCCN2CCN(c3ccccc3F)CC2)c1C 22.4 µM [inhibitor, single point]
CC1(COc2ccc3c(c2)ncn3-c2ccc3cccc(N4CCC(N)CC4)c3n2)COC1 12.1 µM [inhibitor, partial curve]
Cc1ccc2c(c1)C(c1ccc(F)cc1)N(C(=O)c1cccc(C(F)(F)F)c1)CC(=O)N2 (stereo unspecified) 22.4 µM [inhibitor, partial curve, poor fit]
CCOc1cccc(CN2CCCC3(Cc4ccccc4CNC3=O)C2)c1 (stereo unspecified) 39.8 µM [inhibitor, single point]
N#Cc1cccc(NC(=O)CCNS(=O)(=O)c2ccc3c(c2)CCN3C(=O)C2CC2)c1 31.6 µM [inhibitor, partial curve, poor fit]
CC(C)OCCCN1C(=O)c2[nH]nc(-c3ccccc3O)c2C1c1cccc(OCc2ccccc2)c1 (stereo unspecified) 39.8 µM [inhibitor, partial curve, poor fit]
CCN1C(=O)c2ccccc2S(=O)c2ccc(C(=O)N3CCN(c4cccc(Cl)c4)CC3)cc21 (stereo unspecified) 39.8 µM [inhibitor, single point]
CCCCN(c1ccccc1)S(=O)(=O)c1cc2c3c(c1)C(C)C(=O)N3CCC2 (stereo unspecified) 0.398 µM [inhibitor, single point]
C[C@@H]1CN(C(=O)Cn2ncc(N3CCc4ccccc4C3)cc2=O)C[C@H](C)O1 2.82 µM [inhibitor, partial curve, poor fit]
Cc1ccccc1NC1CCn2c(nc(C)c2C(=O)Nc2ccc(F)cc2)C1 (stereo unspecified) 3.16 µM [inhibitor, full curve]
OC[C@@H]1CNC[C@H]1C1CCN(C2CNC2)CC1 25.1 µM [inhibitor, single point]
N[S+](=O)([O-])c1ccc2c(c1)OCCN(CCc1ccccc1)C2 12.6 µM [inhibitor, single point]
CCN(CCCNC(=O)CN1N=C(c2ccc(C)cc2)CCC1=O)c1ccccc1 39.8 µM [inhibitor, single point]
O=c1cc(-c2ccccc2)nc(SCc2nc(-c3cccc(C(F)(F)F)c3)no2)[nH]1 28.2 µM [inhibitor, single point]
Cc1ccn2c(=O)c(NC(=O)c3cccc([N+](=O)[O-])c3C)c(C)nc2c1 11.2 µM [inhibitor, partial curve, poor fit]
COc1ccc(C(=O)Nc2ccc3c(c2)CN(Cc2ccc(F)cc2)C(=O)C(C)O3)c(OC)c1 (stereo unspecified) 31.6 µM [inhibitor, partial curve, poor fit]
Cc1ccc(C(=O)N2CCc3nc4cc(-c5ccccc5)[nH]n4c(=O)c3C2)cn1 2.24 µM [inhibitor, full curve, poor fit]
COc1cccc(CNC(=O)[C@@H]2C[C@@H](O)CN2C2CCN(C(=O)CCCc3ccccc3)CC2)c1 3.16 µM [inhibitor, single point]
CS(=O)(=O)c1ccc(O[C@H]2COCCN(Cc3ccc(-c4ccccc4)cc3)C2)cc1 8.91 µM [inhibitor, partial curve]
CN1CCN(c2cc(C(=O)Nc3ccc4c(c3)-c3c(c(C(N)=O)nn3-c3ccc(F)cc3)CC4)c(Cl)cn2)CC1 48.2 µM [inhibitor, single point]
O=C(C1CC1)N1CCc2cc(Br)cc(S(=O)(=O)Nc3ccc(C(F)(F)F)cc3)c21 39.8 µM [inhibitor, single point]
COc1cccc(CNC(=O)c2ccc3nnc(-c4cccc(C(F)(F)F)c4)n3c2)c1 39.8 µM [inhibitor, single point]
O=c1cnc2cnc(Oc3cccc(Cl)c3)nc2n1C[C@H]1CCCO1 17.8 µM [inhibitor, single point]

Source: PubChem BioAssay AID1671194 (National Center for Advancing Translational Sciences (NCATS), 2021)
